Assay results from the supplement of paper PMC5919970.
Where a name gives a salt, the structure may show the parent alone. Whole data set: some 2,000 compounds, median “fractional viability relative to vehicle” near 0.92, cut for the lowest 2% near 0.11. Some of the results follow.

Test system: TYKNU
Assay: fractional viability relative to vehicle; TYKNU is a high-grade serous ovarian cancer line; higher = less growth inhibition
Conditions: 72 h, genotype: OPA1 knockout (sgOPA1 #2)
How it was run: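 Drug treatment lasted 72 h, with cells grown at 37 °C in 5% CO2 in RPMI 1640 supplemented with 10% FBS. Beforehand, TYKNU control cells or their lentiCRISPRv2 knockout derivatives had been seeded at 500 cells per well into drug-stamped 384-well plates carrying a ~2100-compound library at 2 or 10 μM, in duplicate. Viability came from Cell Titer Glo luminescence, with averaged duplicate treatment wells normalised to duplicate control wells in the same plate position.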

Row | SMILES | fractional viability (2uM) | fractional viability (10uM)
1 | COc1ccc(Cn2ccc3ccc(C(=O)NO)cc32)cc1 | 0.948 | 0.784
2 | NS(=O)(=O)c1cc2c(cc1Cl)NC(C(Cl)Cl)NS2(=O)=O (stereo not given) [Trichlormethiazide] | 1.22 | 0.862
3 | CN[C@@H]1[C@H](O)[C@H](NC)[C@H]2O[C@@]3(O)C(=O)C[C@@H](C)O[C@H]3O[C@@H]2[C@H]1O [Spectinomycin HCl] | 1.15 | 1.74
4 | NC(=O)c1cnc(N[C@@H]2CCCC[C@@H]2N)nc1Nc1cccc(-n2nccn2)c1 | 0.758 | 0.23
5 | Cc1c(-c2ccccc2)oc2c(C(=O)OCCN3CCCCC3)cccc2c1=O [Flavoxate HCl] | 0.939 | 0.84
6 | CCCCCCOC(=O)NC(=N)c1ccc(NCc2nc3cc(C(=O)N(CCC(=O)OCC)c4ccccn4)ccc3n2C)cc1 [Dabigatran Etexilate] | 0.92 | 0.593
7 | COc1ccc(O)cc1 [Mequinol] | 0.894 | 0.891
8 | CCN(CC)CCOC(=O)c1ccc(N)cc1Cl [Chloroprocaine HCl] | 0.906 | 0.824
9 | Clc1ccc(C(Cn2ccnc2)OCc2ccsc2Cl)c(Cl)c1 (stereo not given) [Tioconazole] | 1.07 | 0.85
10 | COc1cc(C(=O)N2CCC(N3CCN(C)CC3)CC2)ccc1Nc1ncc2c(n1)N(C)c1ccccc1C(=O)N2C | 0.767 | 0.649
11 | C[C@@H](Nc1cc(F)cc(F)c1)c1cc(C(=O)N(C)C)cc2c(=O)cc(N3CCOCC3)oc12 | 0.947 | 0.824
12 | CCOC(=O)c1cnc2ccc(-c3cncc(NS(=O)(=O)c4ccccc4)c3)cn12 | 0.529 | 0.37
13 | Cc1c(C(=O)NN2CCCCC2)nn(-c2ccc(Cl)cc2Cl)c1-c1ccc(Cl)cc1 [Rimonabant] | 0.929 | 0.615
14 | COc1cc2c(cc1OC)CC(=O)N(CCCN(C)C[C@H]1Cc3cc(OC)c(OC)cc31)CC2 [Ivabradine HCl] | 1.02 | 0.967
15 | C[C@H]1c2cccc(O)c2C(=O)C2=C(O)[C@]3(O)C(=O)C(C(N)=O)=C(O)[C@@H](N(C)C)[C@@H]3[C@@H](O)[C@@H]21 [Doxycycline Hyclate] | 1.45 | 1.11
16 | O=C(O)C(=O)O.[NH-][C@@H]1CCCC[C@H]1[NH-].[Pt+2] [Oxaliplatin] | 1.09 | 0.865
17 | CC(C)C(=O)Oc1ccc(CO)cc1[C@H](CCN(C(C)C)C(C)C)c1ccccc1 [Fesoterodine Fumarate] | 0.935 | 0.864
18 | Cc1nn(-c2ccccc2)c(C)c1C=NN1CCN(Cc2ccccc2)CC1 | 0.946 | 0.905
19 | Cc1ccc(NC(=O)c2ccc(CN3CCN(C)CC3)cc2)cc1Nc1nccc(-c2cccnc2)n1 [Imatinib Mesylate (STI571)] | 1.14 | 0.828
20 | Cc1ccc(NC(=O)c2ccc(CN3CCN(C)CC3)cc2)cc1Nc1nccc(-c2cccnc2)n1 [Imatinib (STI571)] | 1.18 | 1.11
